From patent US20240174733A1 (published 2024)

What was measured:
GDF11 = biological target: T1, GDF11 (UniProt O95390 299-407); assay: Biacore SPR
T1 chain: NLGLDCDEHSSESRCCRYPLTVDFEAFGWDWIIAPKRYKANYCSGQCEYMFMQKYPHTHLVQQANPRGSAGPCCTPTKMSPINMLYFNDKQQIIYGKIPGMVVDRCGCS

activin A = biological target: T2, activin A (UniProt P08476 311-426); assay: Biacore SPR
T2 chain: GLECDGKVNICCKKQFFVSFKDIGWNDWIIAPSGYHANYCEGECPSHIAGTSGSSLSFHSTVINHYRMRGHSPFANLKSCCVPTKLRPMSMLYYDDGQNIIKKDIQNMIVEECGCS

B1: ActRIIA-hFc (Fc fusion)
chain: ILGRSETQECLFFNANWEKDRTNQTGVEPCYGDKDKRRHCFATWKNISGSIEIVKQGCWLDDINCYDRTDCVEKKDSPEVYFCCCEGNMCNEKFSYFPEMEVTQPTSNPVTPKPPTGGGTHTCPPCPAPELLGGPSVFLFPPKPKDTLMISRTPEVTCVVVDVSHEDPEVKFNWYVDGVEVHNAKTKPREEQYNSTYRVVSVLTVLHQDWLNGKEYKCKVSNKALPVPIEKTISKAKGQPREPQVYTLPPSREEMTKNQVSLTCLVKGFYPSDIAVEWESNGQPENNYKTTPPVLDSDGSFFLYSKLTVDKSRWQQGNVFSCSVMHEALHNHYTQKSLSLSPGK
Binder B1 has a Kd (GDF11) of 9.96 nM and a Kd (activin A) of 0.005 nM.
